Results published in PubChem BioAssay (Tox21).
Where “and” joins values, the source holds several entries; their conditions need not be identical. Equal values may be shown once. Inconclusive means that the source gave no clear call. Such entries were picked first, then a sample of the others. A potency beside an inconclusive call is a rough fit, not a confirmed value. More than one record can exist for a structure, and the calls need not agree. Calls of active or inactive are those of the source. Unless noted, calls follow the shape of the dose curve; as a rule, active = well fitted curve in the direction sought with a large enough effect in the repeat runs; inconclusive = weak or mixed curves; inactive = no such curve, though single readings can be large; an effect the other way counts as inactive or inconclusive.

Molecular target: Androgen receptor (Homo sapiens) (UniProt P10275)
Sequence of UniProt P10275 (P10275 whole entry, looked up): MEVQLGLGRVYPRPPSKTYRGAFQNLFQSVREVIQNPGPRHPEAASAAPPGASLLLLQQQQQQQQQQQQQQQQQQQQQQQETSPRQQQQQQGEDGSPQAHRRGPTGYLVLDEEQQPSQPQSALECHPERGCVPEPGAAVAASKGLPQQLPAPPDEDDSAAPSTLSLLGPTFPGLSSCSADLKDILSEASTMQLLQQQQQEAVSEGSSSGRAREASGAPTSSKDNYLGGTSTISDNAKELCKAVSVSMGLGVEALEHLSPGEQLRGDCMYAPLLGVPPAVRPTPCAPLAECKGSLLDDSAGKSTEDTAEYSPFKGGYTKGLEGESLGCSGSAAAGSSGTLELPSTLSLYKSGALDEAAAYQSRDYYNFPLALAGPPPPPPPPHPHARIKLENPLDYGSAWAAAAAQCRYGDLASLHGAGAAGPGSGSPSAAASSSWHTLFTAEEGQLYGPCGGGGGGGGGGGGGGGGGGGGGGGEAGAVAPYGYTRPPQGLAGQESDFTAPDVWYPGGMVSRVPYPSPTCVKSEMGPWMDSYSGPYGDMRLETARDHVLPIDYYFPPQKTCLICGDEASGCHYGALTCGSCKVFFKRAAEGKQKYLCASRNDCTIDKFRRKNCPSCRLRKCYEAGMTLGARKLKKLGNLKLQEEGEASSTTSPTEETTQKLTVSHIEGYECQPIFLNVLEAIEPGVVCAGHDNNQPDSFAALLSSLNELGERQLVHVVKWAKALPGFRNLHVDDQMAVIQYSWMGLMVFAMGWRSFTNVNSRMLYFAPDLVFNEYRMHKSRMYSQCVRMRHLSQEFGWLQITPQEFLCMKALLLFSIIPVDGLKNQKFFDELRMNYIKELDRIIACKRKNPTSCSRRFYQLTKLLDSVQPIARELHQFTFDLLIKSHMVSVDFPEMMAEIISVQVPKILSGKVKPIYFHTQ
Assay: qHTS assay to identify small molecule antagonists of the androgen receptor (AR) signaling pathway using the MDA cell line in the presence of 0.5 nM R1881 (AID 1259243); also: nearly all actives have a fitted effect of over 50% in size
Settings: MDA-kb2 MMTV-luciferase, R1881 0.5 nM, 16 h; series mostly up to 92.4 µM
Procedure, shortened: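 Cells: MDA-kb2 (MMTV-luc). Stimulus: 0.5 nM R1881. Time: 16 hr, 37C, no CO2. Detection: ONE-Glo luminescence after 30 min at RT.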
Potency is read from the fitted curve at half-maximal effect; tags tell the direction and shape of the fitted curve.

| SMILES | Potency |
| --- | --- |
| COC(=O)C1=C(C)NC(C)=C(C(=O)OC(C)(C)CN(C)CCC(c2ccccc2)c2ccccc2)C1c1cccc([N+](=O)[O-])c1 (stereo not drawn) | active: 26.6 µM |
| CCC(=O)c1ccc2c(c1)N(CCCN(C)C)c1ccccc1S2 | inconclusive: 33.5 µM [inhibitor, single point] |
| CC(C)OC(=O)c1cc2c(OCC(O)CNC(C)(C)C)cccc2[nH]1 (stereo not drawn) | inconclusive: 16.8 µM [inhibitor, partial curve, poor fit] |
| CCCCOC(=O)c1ccc(O)cc1 | inconclusive: 61.9 µM [inhibitor, single point] and inconclusive: 61.1 µM [inhibitor, single point] |
| CCCCCc1ccc(O)cc1 | inconclusive: 61.1 µM [inhibitor] |
| CC1=Nc2ccc3ccccc3c2C1(C)C | active: 19.3 µM |

Molecular target: Estrogen receptor (Homo sapiens) (UniProt P03372)
Sequence of UniProt P03372 (P03372 whole entry, looked up): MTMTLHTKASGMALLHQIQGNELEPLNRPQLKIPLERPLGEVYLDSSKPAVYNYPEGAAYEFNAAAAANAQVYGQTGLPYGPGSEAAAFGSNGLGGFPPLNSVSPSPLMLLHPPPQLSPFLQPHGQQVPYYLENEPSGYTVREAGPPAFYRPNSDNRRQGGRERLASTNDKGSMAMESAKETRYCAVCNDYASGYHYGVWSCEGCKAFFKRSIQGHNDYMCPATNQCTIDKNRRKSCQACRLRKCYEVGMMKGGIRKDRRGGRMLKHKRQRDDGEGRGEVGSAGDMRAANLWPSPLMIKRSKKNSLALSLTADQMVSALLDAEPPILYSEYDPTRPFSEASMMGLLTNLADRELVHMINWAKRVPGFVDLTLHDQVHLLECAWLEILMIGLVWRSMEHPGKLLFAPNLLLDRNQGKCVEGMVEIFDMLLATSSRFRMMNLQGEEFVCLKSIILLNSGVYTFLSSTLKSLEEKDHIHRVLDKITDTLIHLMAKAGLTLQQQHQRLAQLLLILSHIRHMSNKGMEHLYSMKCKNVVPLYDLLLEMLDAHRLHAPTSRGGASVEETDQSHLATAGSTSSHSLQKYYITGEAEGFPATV
Assay: qHTS assay to identify small molecule antagonists of the estrogen receptor alpha (ER-alpha) signaling pathway using the BG1 cell line in the presence of 0.1 nM 17-beta-estradiol (AID 1259244); also: nearly all actives have a fitted effect of over 50% in size
Settings: VM7Luc4E2 (BG1) ERE-luciferase, antagonist mode, 0.1 nM E2, 22 h; series mostly up to 92.4 µM
Procedure, shortened: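 Seeding of stripped-serum-adapted VM7Luc4E2 cells, 24 h attachment, compound transfer, then 0.1 nM final 17beta-estradiol; after 22 h incubation, ONE-Glo reagent and luminescence reading.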

| SMILES | Potency |
| --- | --- |
| CCCCCC(C)OC(=O)COc1ccc(Cl)c2cccnc12 (stereo not drawn) | inconclusive: 68.6 µM [inhibitor, single point] |
| COC(=O)C1=C(C)NC(C)=C(C(=O)OC(C)(C)CN(C)CCC(c2ccccc2)c2ccccc2)C1c1cccc([N+](=O)[O-])c1 (stereo not drawn) | inconclusive: 23.7 µM [inhibitor, partial curve, poor fit] |
| COc1cc2ncnc(Nc3ccc(F)c(Cl)c3)c2cc1OCCCN1CCOCC1 | inconclusive: 33.5 µM [inhibitor, single point] |
| Nc1cc(Cl)c(N)c(Cl)c1 | inconclusive: 24.1 µM [inhibitor, partial curve] and inactive |
| O=S1(=O)OC(c2ccc(O)cc2)(c2ccc(O)cc2)c2ccccc21 | active: 61.1 µM and inconclusive: 30.6 µM [inhibitor, partial curve, poor fit] |
| O=C(OCCOCCO)c1ccccc1Nc1cccc(C(F)(F)F)c1 | inconclusive: 21.1 µM [inhibitor, partial curve] |
| CC1=Nc2ccc3ccccc3c2C1(C)C | inconclusive: 68.6 µM [inhibitor, single point] |
| c1cc(N(CC2CO2)CC2CO2)ccc1Cc1ccc(N(CC2CO2)CC2CO2)cc1 (stereo not drawn) | inconclusive: 68.6 µM [inhibitor, single point] |
| O[C@@H](CNC[C@H](O)[C@H]1CCc2cc(F)ccc2O1)[C@@H]1CCc2cc(F)ccc2O1 | inconclusive: 33.5 µM [inhibitor, single point] |

Tested on: not listed separately
Assay: qHTS assay to identify small molecule phospholipidosis (PLD) inducers (AID 1259344; active = well fitted curve in the direction sought with a large enough effect; inconclusive = small, poorly fitted or top-dose-only effect, or another doubt; inactive = no such curve, though single readings can be large; an effect the other way counts as inactive or inconclusive)
Settings: HepG2 phospholipidosis, LipidTOX Red imaging, 24 h; series mostly up to 38.3 µM
Procedure, shortened: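 Cells (HepG2, 900 per well) attach for 4 h, receive LipidTOX Red and compound together, incubate 24 h at 37 C, are fixed 30 min with paraformaldehyde/Hoechst, then imaged at one site per well.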

| SMILES | Potency |
| --- | --- |
| CCN(CC)CCCC(C)Nc1c2ccc(Cl)cc2nc2ccc(OC)cc12 (stereo not drawn) | inconclusive: 14.1 µM [activator, single point] |
| CCC(=O)c1ccc2c(c1)N(CCCN(C)C)c1ccccc1S2 | inconclusive: 28.2 µM [activator, single point] |
| CC(C)OC(=O)c1cc2c(OCC(O)CNC(C)(C)C)cccc2[nH]1 (stereo not drawn) | inconclusive: 0.447 µM [activator, full curve, poor fit] |
| CN(C)CC/C=C1\c2ccccc2Sc2ccc(Cl)cc21 | inconclusive: 28.2 µM [activator, single point] |
| NC(=O)C(c1ccccc1)(c1ccccc1)[C@@H]1CCN(CCc2ccc3c(c2)CCO3)C1 | inconclusive: 11.2 µM [activator, partial curve, poor fit] |
| O[C@@H](CNC[C@H](O)[C@H]1CCc2cc(F)ccc2O1)[C@@H]1CCc2cc(F)ccc2O1 | active: 3.55 µM |

Tested on: not listed separately
Assay: qHTS assay to identify small molecule agonists of the sonic hedgehog signaling (Shh) pathway - cell viability counter screen (AID 1259366); also: nearly all actives have a fitted effect of over 50% in size
Settings: NIH/3T3 Gli1-Luc viability, CellTiter-Fluor, 24 h; series mostly up to 92.4 µM
Procedure, shortened: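 In quantitative high-throughput format, 3T3 Gli1-Luc cells were exposed to compounds for 24hr and multiplexed for viability using CellTiter-Fluor, incubated 1hr at 37C before the fluorescence read.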

| SMILES | Potency |
| --- | --- |
| CCN(CC)CCCC(C)Nc1c2ccc(Cl)cc2nc2ccc(OC)cc12 (stereo not drawn) | inconclusive: 29.8 µM [rising, partial curve] |
| c1csc(SSc2cccs2)c1 | active: 43.3 µM |
| CCCCCCCCC | inactive |
| CC(C)OC(=O)c1cc2c(OCC(O)CNC(C)(C)C)cccc2[nH]1 (stereo not drawn) | inconclusive: 29.8 µM [cytotoxic, partial curve] |
| CCCCOC(=O)c1ccc(O)cc1 | inconclusive: 61.9 µM [cytotoxic, single point] |
| CC1C2CC(CC2C2CCCC(O)C2)C1(C)C (stereo not drawn) | inconclusive: 68.6 µM [cytotoxic, single point] |
| CN(C)CC/C=C1\c2ccccc2Sc2ccc(Cl)cc21 | active: 26.6 µM |
| CN(C)c1ccc(C(=N)c2ccc(N(C)C)cc2)cc1 | active: 48 µM and inconclusive: 58.8 µM [cytotoxic, single point] |
| Oc1ccc2c(c1)-c1ccccc1C2 | inconclusive: 61.1 µM [cytotoxic, partial curve, poor fit] |
| CO[C@@H]1[C@@H](OC)[C@H](C)[C@@](O)(CC(=O)O)O[C@H]1[C@H](C)[C@H]1O[C@@]2(CC[C@@](C)([C@H]3CC[C@@](C)([C@@H]4O[C@@H]([C@H]5O[C@](C)(O)[C@H](C)C[C@@H]5C)C[C@@H]4OC4C[C@H](OC)[C@@H](OC)[C@H](C)O4)O3)O2)C[C@H](O)[C@H]1C (stereo partly drawn) | active: 4.22 µM |
| CCCCCc1ccc(O)cc1 | inconclusive: 68.6 µM [cytotoxic] |
| CC1=Nc2ccc3ccccc3c2C1(C)C | inconclusive: 48.6 µM [rising, partial curve] |
| NC(=O)C(c1ccccc1)(c1ccccc1)[C@@H]1CCN(CCc2ccc3c(c2)CCO3)C1 | inconclusive: 29.8 µM [cytotoxic, partial curve, poor fit] |
| COC(=O)C1=C(C)NC(C)=C(C(=O)OCC(C)=O)C1c1ccccc1[N+](=O)[O-] (stereo not drawn) | active: 26.6 µM |
| C=C1CC[C@H](O)CC1=C/C=C1\CCC[C@]2(C)[C@@H]([C@H](C)/C=C/[C@H](C)C(C)C)CC[C@@H]12 | inconclusive: 34.4 µM [cytotoxic, partial curve, poor fit] |
| Nc1cccc2c(N)cccc12 | inconclusive: 68.6 µM [cytotoxic, single point] |
| O[C@@H](CNC[C@H](O)[C@H]1CCc2cc(F)ccc2O1)[C@@H]1CCc2cc(F)ccc2O1 | active: 29.8 µM |
